# The other results are listed elsewhere or left out.
# B1: PhoQ; a variant is named by its letters at X, in order, P23837 (parent)
# chain: MKKLLRLFFPLSLRVRFLLATAAVVLVLSLAYGMVALIGYSVSFDKTTFRLLRGESNLFYTLAKWENNKLHVELPENIDKQSPTMTLIYDENGQLLWAQRDVPWLMKMIQPDWLKSNGFHEIEADVNDTSLLLSGDHSIQQQLQEVREDDDDAEMTHSVAVNVYPATSRMPKLTIVVVDTIPVELKSSYMVWSWFIYVLSANLLLVIPLLWVAAWWSLRPIEALAKEVRELEEHNRELLNPATTRELTSLVRNLNRLLKSERERYDKYRTTLTDLTHSLKTPLXXLQXXLRSLRSEKMSVSDAEPVMLEQISRISQQIGYYLHRASMRGGTLLSRELHPVAPLLDNLTSALNKVYQRKGVNISLDISPEISFVGEQNDFVEVMGNVLDNACKYCLEFVEISARQTDEHLYIVVEDDGPGIPLSKREVIFDRGQRVDTLRPGQGVGLAVAREITEQYEGKIVAGESMLGGARMEVIFGRQHSAPKDE
# Variants of: B1
# Test: enrichment ratio after two sorts for PhoP signalling (ratio (wild type AVST 3.29)); higher = more functional
# Settings: with PhoP (E. coli)
row,Variant,enrichment ratio
1,PQKW,≤ 0.25
2,IKME,≤ 0.25
3,AEIY,14.8
4,DSHN,≤ 0.25
5,HDAA,≤ 0.25
6,KILK,≤ 0.25
7,AHVM,1.65
8,PRLQ,≤ 0.25
9,YNNG,≤ 0.25
10,LMPT,≤ 0.25
11,TYMK,≤ 0.25
12,INKF,≤ 0.25
13,IWDM,≤ 0.25
14,MQKV,≤ 0.25
15,KDYC,≤ 0.25
16,AQHE,≤ 0.25
17,DWID,≤ 0.25
18,NNPF,≤ 0.25
19,AMYM,≤ 0.25
20,VVIT,≤ 0.25
21,HGMM,≤ 0.25
22,MIMK,≤ 0.25
23,HPGI,≤ 0.25
24,FEVA,≤ 0.25
25,YMNQ,≤ 0.25
26,NHFD,≤ 0.25

row,Variant,enrichment ratio
1,HLRT,≤ 0.25
2,FGNM,≤ 0.25
3,RKFM,≤ 0.25
4,LSYS,≤ 0.25
5,HNNK,≤ 0.25
6,ISSE,≤ 0.25
7,EHTW,≤ 0.25
8,FNQS,≤ 0.25
9,TPFF,0.583
10,PLEW,≤ 0.25
11,SNNQ,4.35
12,AIYY,≤ 0.25
13,KKAH,≤ 0.25
14,AARG,≤ 0.25
15,GYQA,≤ 0.25
16,YPHQ,≤ 0.25
17,SYPG,≤ 0.25
18,TFIS,≤ 0.25
19,AGID,≤ 0.25
20,LADW,≤ 0.25
21,GMHM,≤ 0.25
22,SRMK,≤ 0.25
23,HHLG,≤ 0.25
24,FEQH,≤ 0.25
25,FQWN,≤ 0.25
26,WCNW,≤ 0.25

row,Variant,enrichment ratio
1,TMIL,≤ 0.25
2,ILRP,≤ 0.25
3,FFHN,≤ 0.25
4,SVFI,≤ 0.25
5,LARL,≤ 0.25
6,DDMP,≤ 0.25
7,YGAT,0.272
8,GERH,≤ 0.25
9,DFAQ,≤ 0.25
10,VPQL,≤ 0.25
11,FPEL,≤ 0.25
12,SDAR,≤ 0.25
13,HSDD,≤ 0.25
14,NKFT,≤ 0.25
15,HYCP,≤ 0.25
16,VCLY,≤ 0.25
17,VYSY,≤ 0.25
18,PCLP,≤ 0.25
19,TTDQ,≤ 0.25
20,FTYE,≤ 0.25
21,FQQI,≤ 0.25
22,LQTF,≤ 0.25
23,RCPF,≤ 0.25
24,HCTG,≤ 0.25
25,RLCT,≤ 0.25
26,WTPV,≤ 0.25

row,Variant,enrichment ratio
1,PQVQ,≤ 0.25
2,SCIY,2.52
3,VRPW,≤ 0.25
4,FKIF,≤ 0.25
5,FHYM,≤ 0.25
6,AEHG,≤ 0.25
7,MSEN,≤ 0.25
8,KSIL,≤ 0.25
9,RMRI,≤ 0.25
10,DDHG,≤ 0.25
11,NMGM,≤ 0.25
12,WQSA,≤ 0.25
13,PLNF,≤ 0.25
14,GQCA,0.713
15,TYYT,≤ 0.25
16,VRLT,≤ 0.25
17,SKIH,2.53
18,VYAH,≤ 0.25
19,MFLY,≤ 0.25
20,WPAD,≤ 0.25
21,YTIL,0.593
22,YTMH,≤ 0.25
23,PEGR,≤ 0.25
24,SFDM,≤ 0.25
25,WPWK,≤ 0.25
26,DWNP,≤ 0.25

row,Variant,enrichment ratio
1,AWTF,≤ 0.25
2,SNVL,8.74
3,NKHC,≤ 0.25
4,IYTL,≤ 0.25
5,QNVK,≤ 0.25
6,ASYQ,≤ 0.25
7,YGST,0.384
8,RMWA,≤ 0.25
9,GMRQ,≤ 0.25
10,PELM,≤ 0.25
11,PESW,≤ 0.25
12,GYNL,≤ 0.25
13,MYDT,≤ 0.25
14,ARTS,≤ 0.25
15,DYPD,≤ 0.25
16,FETD,≤ 0.25
17,VNSI,1.97
18,SMPG,≤ 0.25
19,PAMP,≤ 0.25
20,HKRK,≤ 0.25
21,LASW,≤ 0.25
22,DLER,≤ 0.25
23,NDMH,≤ 0.25
24,MVMF,0.704
25,FCGF,≤ 0.25
26,MCCE,≤ 0.25

row,Variant,enrichment ratio
1,WCFM,≤ 0.25
2,LNWF,≤ 0.25
3,STGG,7.99
4,AAML,14.7
5,NVMI,≤ 0.25
6,YPHI,≤ 0.25
7,LCWH,≤ 0.25
8,QDGI,≤ 0.25
9,VWMN,≤ 0.25
10,TQRM,≤ 0.25
11,GNAG,0.269
12,MVTW,≤ 0.25
13,SVTW,8.74
14,MRDS,≤ 0.25
15,NEWP,≤ 0.25
16,NVCP,≤ 0.25
17,KRFD,≤ 0.25
18,SFYP,≤ 0.25
19,DFAW,≤ 0.25
20,MPYQ,≤ 0.25
21,TKNP,≤ 0.25
22,MLDD,≤ 0.25
23,IALC,1.46

# Reference: a collection of fitness landscapes (doi:10.1126/science.1257360)
